The values that follow come from ChEMBL document CHEMBL4888484, “Replenishing the malaria drug discovery pipeline: Screening and hit evaluation of the MMV Hit Generation Library 1 (HGL1) against asexual blood stage Plasmodium falciparum ,using a nano luciferase reporter read-out” (2022).

Broadly, the % Inhibition is the drop in the measured response relative to a control, in per cent.

The campaign covered roughly 150,000 compounds. About 540 (0.36%) showed an effect of 50% or more. The list shows a part of the results.

In the test the test system is Plasmodium falciparum. Kind of test: Primary screen in NF54 nanoGlo assay, in single point, at 2uM, 72h; a lower Z score goes with more inhibition. The format is functional, Erythrocyte. As to conditions: timepoint 72 hour.
Take `CCOc1cccc([C@H](C)NS(=O)(=O)c2ccc3c(c2)NC(=O)CO3)c1`: the “% Inhibition” value came to 5% and the Z score is -0.79.
For `O=C(CCc1nc(-c2ccoc2)no1)N1CCC[C@@H]1CN1CCCC1`, in that order: 2% and -0.25.
For `C=C1CCC(C(=O)N2CCN(c3ccc(F)cn3)CC2)CC1`, in that order: -4% and 0.76.
For `Cc1nc(N[C@H]2CCC(=O)NC2)c2c(C)csc2n1`, in that order: -10% and 1.07.
As for `C[C@H]1CCCN(C(C)(C)CNS(C)(=O)=O)C1`, the “% Inhibition” value is recorded as -12% and the Z score worked out at 1.24.
For `CC(C)(C)CNC(=O)C(C)(C)NC(=O)Nc1cccc(F)c1`, in that order: 6% and -1.
For `O=C(N1CCC(Cc2cc(F)ccc2F)CC1)C1(O)COC1`, in that order: 1% and -0.08.
For `c1ccc(Nc2ncc(-c3ccc4ccccc4c3)s2)cc1`, in that order: -12% and 1.96.
Take `FC(F)c1nnc(NCCCn2cccn2)s1`: the “% Inhibition” value is on record as -27% and the Z score is on record as 3.22.
For `Cc1ccc(CNC(=O)C[C@H]2CCS(=O)(=O)C2)cc1`, in that order: 34% and -4.39.
For `Cc1ccc(NC(=O)c2ccc(CNC(=O)c3ccccc3)o2)cc1C`, the “% Inhibition” value was 8% and the Z score is listed as -1.37.
For `C[C@@H](c1ccccc1)n1cnnc1Cc1c[nH]c2ccccc12`, in that order: 9% and -1.22.
For `Cn1cnc([C@@H]2CN(Cc3noc(C4CCC4)n3)C[C@H]2C(=O)NC2CC2)c1`, in that order: -11% and 1.47.
For `CN1CCCC(CNc2ccc(C#N)cn2)C1c1cccs1` (stereo unspecified), in that order: -12% and 1.24.
Turning to `CC(=O)Nc1ccc(C(C)=O)cc1OCC(=O)Nc1ccc2c(c1)CCC2`, the “% Inhibition” value is given as -9% and the Z score is on record as 1.34.
For `Cc1cc([C@H]2C[C@H]3CC[C@@H](C2)N3C(=O)CN(C)C)ccc1F`, in that order: -9% and 0.82.
Regarding `Nc1cc(C(=O)NCc2cccc(CO)c2)n[nH]1`, the “% Inhibition” value is 0% and the Z score was determined as 0.03.
For `CCCCN(CC(N)=O)CC(=O)Nc1ccc(Cl)cn1`, in that order: -6% and 1.08.
For `CC1CCN(C(=O)N2CC(CF)C2)CC1`, in that order: 3% and -0.31.
For the molecule `Cc1cccc(CN2CCC[C@@](O)(CN3CCCCO3)C2=O)c1`, the “% Inhibition” value was -5% and the Z score is recorded as 0.78.
For the molecule `Cc1cc(NC(=O)NCc2cc[nH]n2)no1`, the “% Inhibition” value is on record as -7% and the Z score was found to be 1.32.
For `Cc1ccnc(NCCn2cnc3nccnc3c2=O)c1`, in that order: -7% and 1.32.
`COCC(O)CNC(=O)C(C)c1ccc(Cl)s1` (stereo unspecified): the “% Inhibition” value is reported as -2% and the Z score is 0.29.
For `Cc1cc(C)cc(CN2CCN(C(=O)c3ncc(F)cc3F)CC2=O)c1`, in that order: 2% and -0.36.
For `COc1ccc(C(=O)NC(c2ccccc2)[C@H]2C[C@@H](O)C2)c(OC)c1` (stereo partly specified), in that order: 5% and -0.62.
For `CCOc1ccc(CNC(=O)C2CCN(S(=O)(=O)N3CCC(C)CC3)CC2)cc1OC`, in that order: -2% and 0.29.
`Cc1c(-c2noc(C(=O)NC3CC3)n2)oc2c(C)cccc12`: the “% Inhibition” value is given as -9% and the Z score was found to be 1.19.
For `CN(CCc1cnn(C)c1)c1cc([C@H]2CCOC2)ncn1`, in that order: 4% and -0.39.
With `O=C1CC[C@@H](C(=O)N2CCN(c3ccc(F)cn3)CC2)n2cccc21`, the “% Inhibition” value was -9% and the Z score turned out to be 1.11.
For the molecule `CCOc1ccc(C(=O)NCc2nccnc2-c2cccnc2)cc1`, the “% Inhibition” value is -8% and the Z score is recorded as 0.87.
Consider `CC(C)Cc1cc(C(=O)Nc2c[nH]nc2-c2nccs2)cc(O)n1`, for which the “% Inhibition” value is recorded as -1% and the Z score was determined as 0.11.
For `COc1ccc(C2c3c(-c4ccccc4)nc(N)n3NC(=O)C2C#N)cc1` (stereo unspecified), in that order: -8% and 1.02.
`O=C(c1ccc(C2CCCOC2)cc1)N1CCOC2CCCCC21` (stereo unspecified): the “% Inhibition” value is listed as -9% and the Z score was 1.05.
For `O=C(O)[C@H]1[C@@H]2CN(Cc3nc(-c4ccccc4)cs3)C[C@@H]21`, in that order: -8% and 0.97.
For `O=C1CCN(C(=O)COCC2CCCO2)C(C2CC2)C1` (stereo unspecified), in that order: 27% and -3.47.
Turning to `Nc1nnnn1CC(=O)NCCCc1ccco1`, the “% Inhibition” value is listed as 4% and the Z score is -0.66.
Take `CN(C)CCn1nccc1NC(=O)CC(C)(C)C#N`: the “% Inhibition” value is -3% and the Z score is 0.28.
For `Cc1cc(C(=O)COc2ccc(C(C)C)cc2)c(C)n1[C@H]1CCS(=O)(=O)C1`, in that order: -5% and 0.72.
For `O=C1C[C@@H](c2nc(C3CCOCC3)n[nH]2)c2ccccc2N1`, in that order: -9% and 1.74.
For the molecule `NC(=O)[C@@H]1C[C@@H](F)CN1C(=O)c1ccc2[nH]cnc2c1`, the “% Inhibition” value amounted to 8% and the Z score is reported as -0.97.
For `CCC(=O)N1CCCN(Cc2nc3ccccc3c(=O)[nH]2)CC1`, in that order: -6% and 0.78.
On to `O=C1C2C[C@@H](O)CN2C(=O)N1c1cccc2ccccc12` (stereo partly specified), for which the “% Inhibition” value was -4% and the Z score stood at 0.46.
On to `C[C@H]1OCC[C@H]1NC(=O)[C@@H]1CC[C@H](C(=O)N[C@@H]2CCO[C@@H]2C)C1`, for which the “% Inhibition” value was -1% and the Z score was determined as 0.22.
